From the supplement of paper PMC8007513 come the findings set out here.

This experiment relates to Trichoderma virens ATCC 9645. Briefly: growth yield (OD600) relative to untreated control; higher = less growth inhibition. The settings on record: compound concentration: 100 uM. The essentials:
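For each 96-well plate, 100 μl aliquots were prepared with Trichoderma virens ATCC 9645 spores suspended at 15,000 spores ml^−1 in potato dextrose broth. The spores had been harvested from potato dextrose agar plates after 7 days. Library compounds were present at 100 μM final, some wells also receiving a biocide at 200 ng ml^−1, and plates were grown at 30 °C with OD600 read on a BioTek EL800 at 40 h and 72 h. Reported growth, relative to the control lacking both agents, is the mean of duplicate screens.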

Each structure is given as a SMILES string. Structures can show the parent of a compound that is named as a salt. ± gives the standard error. The whole screen tested about 1,300 compounds, of which about 75 (6%) showed an effect of 50% or more. Some of the results follow.

On to `COc1ccc(-c2cc(=S)ss2)cc1` [Anethole-trithione], for which the growth yield turned out to be 76.4 ± 9.1% (40 h) and 77.5 ± 7.2% (72 h).

With `COc1cc(C(=O)NCc2ccc(OCCN(C)C)cc2)cc(OC)c1OC` [Trimethobenzamide hydrochloride], the growth yield reads like this: (40 h) 103 ± 2.4%; (72 h) 97.75 ± 0.21%.

In the case of `CCCN1CCCC[C@H]1C(=O)Nc1c(C)cccc1C` [Ropivacaine hydrochloride], the growth yield came to 107 ± 3.6% (40 h) and 106 ± 1.9% (72 h).

Take `C1CCC(C(CC2CCCCN2)C2CCCCC2)CC1` (stereo unspecified) [Perhexiline maleate]: the growth yield reads like this: (40 h) 86.9 ± 7.5%; (72 h) 104 ± 6.6%.

Take `CC(C)NCC(O)COc1ccc(CCOCC2CC2)cc1` (stereo unspecified) [Betaxolol hydrochloride]: the growth yield is, setting by setting: (40 h) 95 ± 1.9%; (72 h) 98.8 ± 3.1%.

Consider `CC(=O)[C@@]1(O)CC[C@H]2[C@@H]3C[C@H](C)C4=CC(=O)C=C[C@]4(C)[C@@]3(F)[C@@H](O)C[C@@]21C` [Fluorometholone], for which the growth yield is 88.3 ± 4.1% (40 h) and 87.3 ± 4.8% (72 h).

Consider `CCc1nc(N)nc(N)c1-c1ccc(Cl)cc1` [Pyrimethamine], for which the growth yield reads like this: (40 h) 104.2 ± 0.95%; (72 h) 105 ± 2.6%.

In the case of `C#C[C@]1(OC(C)=O)CC[C@H]2[C@@H]3CCC4=CC(=NO)CC[C@@H]4[C@H]3CC[C@@]21CC` (mixture of isomers) [Norgestimate], the growth yield (40 h) worked out at 117 ± 3.3% and the growth yield (72 h) turned out to be 112 ± 3.9%.

`CC(=O)O[C@]1(C(C)=O)CC[C@H]2[C@@H]3C=C(Cl)C4=CC(=O)[C@@H]5C[C@@H]5[C@]4(C)[C@H]3CC[C@@]21C` [Cyproterone acetate] yielded a growth yield (40 h) of 105.8 ± 0.64% and a growth yield (72 h) of 101 ± 2.4%.

Turning to `Clc1ccc(CO/N=C(\Cn2ccnc2)c2ccc(Cl)cc2Cl)c(Cl)c1` [Oxiconazole Nitrate], the growth yield runs as follows: (40 h) 1.59 ± 1.6%; (72 h) 0.839 ± 0.84%.

For `O=C(O)COCCN1CCN(C(c2ccccc2)c2ccc(Cl)cc2)CC1` (stereo unspecified) [Cetirizine dihydrochloride], the growth yield (40 h) turned out to be 102 ± 1.1% and the growth yield (72 h) worked out at 103.2 ± 1.4e-14%.

Regarding `N[C@@H]1CONC1=O` [D-cycloserine], the growth yield is 107.7 ± 0.32% (40 h) and 103 ± 1.1% (72 h).

On to `COc1cc2nc(N(C)CCCNC(=O)C3CCCO3)nc(N)c2cc1OC` (stereo unspecified) [Alfuzosin hydrochloride], for which the growth yield runs as follows: (40 h) 104.7 ± 0.79%; (72 h) 105 ± 3.6%.

Turning to `Clc1ccc(Cn2c(CN3CCCC3)nc3ccccc32)cc1` [Clemizole hydrochloride], the growth yield (40 h) worked out at 100 ± 2.2% and the growth yield (72 h) amounted to 104 ± 2%.

Consider `CC(=O)Oc1ccccc1C(=O)O` [Acetylsalicylic acid], for which the growth yield by setting is: (40 h) 93.4 ± 3.5%; (72 h) 84.7 ± 2.3%.

Take `N=C(N)NS(=O)(=O)c1ccc(N)cc1` [Sulfaguanidine]: the growth yield was determined as 106 ± 4.3% (40 h) and 104 ± 3% (72 h).

Take `CC1=C(/C=C/C(C)=C/C=C/C(C)=C/C(=O)O)C(C)(C)CCC1` [Retinoic acid]: the growth yield is, setting by setting: (40 h) 98.2 ± 3.8%; (72 h) 97.6 ± 2%.

As to `NC(=O)c1cc[n+](CC2=C(C(=O)[O-])N3C(=O)[C@@H](NC(=O)[C@@H](c4ccccc4)S(=O)(=O)O)[C@H]3SC2)cc1` [Cefsulodin sodium salt], the growth yield (40 h) was 95 ± 4.8% and the growth yield (72 h) amounted to 99.3 ± 3.2%.

Consider `CCc1c(C)[nH]c2c1C(=O)C(CN1CCOCC1)CC2` (stereo unspecified) [Molindone hydrochloride], for which the growth yield was 98 ± 0.79% (40 h) and 93.97 ± 0.84% (72 h).

On to `CCC1(c2ccccc2)NC(=O)N(C)C1=O` (stereo unspecified) [Mephenytoin], for which the growth yield is, setting by setting: (40 h) 110 ± 4.9%; (72 h) 102 ± 4.5%.

For `Cc1ncc(CO)c(CO)c1O` [Pyridoxine hydrochloride], the growth yield worked out at 101.5 ± 0.16% (40 h) and 103.3 ± 0.52% (72 h).

Consider `C[C@]12CC[C@@H]3c4ccc(O)cc4CC[C@H]3[C@@H]1CC[C@@H]2O` [Estradiol-17 beta], for which the growth yield reads like this: (40 h) 79.6 ± 14%; (72 h) 81.4 ± 14%.

Turning to `CCCN(CCC)S(=O)(=O)c1ccc(C(=O)O)cc1` [Probenecid], the growth yield came to 90.1 ± 4% (40 h) and 89.9 ± 2.6% (72 h).

`COc1ccc2[nH]c([S+]([O-])Cc3ncc(C)c(OC)c3C)nc2n1` (stereo unspecified) [Tenatoprazole] showed a growth yield (40 h) of 98.8 ± 4.8% and a growth yield (72 h) of 102 ± 1.6%.

As to `CN(C)CCOC(c1ccccc1)c1ccccc1` [Diphenhydramine hydrochloride], the growth yield (40 h) was determined as 99.9 ± 5.2% and the growth yield (72 h) turned out to be 99.4 ± 3.1%.

Consider `CC(=O)[C@H]1CC[C@H]2[C@@H]3CCC4=CC(=O)CC[C@]4(C)[C@H]3CC[C@]12C` [Progesterone], for which the growth yield (40 h) stood at 69.3% and the growth yield (72 h) worked out at 81.8%.

For `NC(Cc1cc(I)c(Oc2cc(I)c(O)c(I)c2)c(I)c1)C(=O)O` (stereo unspecified) [Thyroxine (L)], the growth yield by setting is: (40 h) 98 ± 2.1%; (72 h) 94.5 ± 3.9%.

As for `CN(C)CC/C=C1/c2ccccc2Sc2ccc(Cl)cc21` [Chlorprothixene hydrochloride], the growth yield stood at 70.5 ± 6.3% (40 h) and 90.8 ± 2.7% (72 h).

With `N=C(N)NC(=O)Cc1c(Cl)cccc1Cl` [Guanfacine hydrochloride], the growth yield by setting is: (40 h) 97.1 ± 1.4%; (72 h) 101.3 ± 0.63%.

With `CN1C(=O)CC(c2ccccc2)C1=O` (stereo unspecified) [Phensuximide], the growth yield (40 h) came to 102 ± 5.1% and the growth yield (72 h) is 97 ± 3.7%.

For the compound `Nc1ccn([C@@H]2O[C@H](CO)[C@@H](O)C2(F)F)c(=O)n1` [Gemcitabine], the growth yield was 101 ± 1.6% (40 h) and 100 ± 0.42% (72 h).

For the compound `CN(C)CCN(Cc1ccccc1)c1ccccn1` [Tripelennamine hydrochloride], the growth yield by setting is: (40 h) 107 ± 1.4%; (72 h) 100 ± 1.6%.

In the case of `CC1CNc2c(cccc2S(=O)(=O)N[C@@H](CCCNC(=N)N)C(=O)N2CC[C@@H](C)C[C@@H]2C(=O)O)C1` (stereo partly specified) [Argatroban], the growth yield reads like this: (40 h) 104 ± 4.9%; (72 h) 101 ± 3.4%.
